Laboratory results as given in publication PMC6019357.
Results are given in words; binding and its absence hold for the method and conditions named. In cells and extracts the contact can be indirect. Some results given as binding are weak or reduced against the parent protein; the word gives no strength.

Chains of the proteins cited; added tags and fusions are not shown.
UniProt Q08775: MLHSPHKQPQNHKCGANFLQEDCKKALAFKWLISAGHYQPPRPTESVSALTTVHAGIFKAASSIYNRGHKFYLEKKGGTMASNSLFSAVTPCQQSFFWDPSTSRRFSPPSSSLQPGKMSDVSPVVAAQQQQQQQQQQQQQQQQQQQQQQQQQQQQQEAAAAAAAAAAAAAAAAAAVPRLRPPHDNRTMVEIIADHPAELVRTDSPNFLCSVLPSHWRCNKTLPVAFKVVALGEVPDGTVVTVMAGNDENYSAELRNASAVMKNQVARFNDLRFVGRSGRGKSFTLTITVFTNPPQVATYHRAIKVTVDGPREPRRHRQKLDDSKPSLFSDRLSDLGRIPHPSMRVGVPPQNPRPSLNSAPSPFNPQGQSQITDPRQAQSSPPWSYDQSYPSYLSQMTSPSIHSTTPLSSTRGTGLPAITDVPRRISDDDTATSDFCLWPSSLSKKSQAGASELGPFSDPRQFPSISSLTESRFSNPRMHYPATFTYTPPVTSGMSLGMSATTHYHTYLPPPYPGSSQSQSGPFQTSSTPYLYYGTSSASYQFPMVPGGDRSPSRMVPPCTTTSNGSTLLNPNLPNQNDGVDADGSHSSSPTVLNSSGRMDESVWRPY

T1: interferon-inducible protein p202 (mouse (endogenous in mouse BMSCs; wild-type mouse cDNA in pcDNA-p202)) (UniProt Q9R002)
T1 sequence: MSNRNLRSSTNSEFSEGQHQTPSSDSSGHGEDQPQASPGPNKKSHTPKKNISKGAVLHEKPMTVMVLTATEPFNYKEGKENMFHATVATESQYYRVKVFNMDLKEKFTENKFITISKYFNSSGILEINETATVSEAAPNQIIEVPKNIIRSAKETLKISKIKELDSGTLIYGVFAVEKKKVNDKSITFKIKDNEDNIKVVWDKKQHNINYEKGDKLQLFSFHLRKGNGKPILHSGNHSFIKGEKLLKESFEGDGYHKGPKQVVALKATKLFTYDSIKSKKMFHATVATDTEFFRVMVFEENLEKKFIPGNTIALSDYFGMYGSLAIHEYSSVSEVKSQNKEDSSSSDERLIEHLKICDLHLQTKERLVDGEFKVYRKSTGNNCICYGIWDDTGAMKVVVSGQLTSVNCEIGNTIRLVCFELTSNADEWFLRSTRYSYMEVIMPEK


Columns and labels:
[1] = molecular target: T1, interferon-inducible protein p202 (mouse (endogenous in mouse BMSCs; wild-type mouse cDNA in pcDNA-p202)); test: co-IP; extracts of mouse BMSCs at day 4 of osteogenic induction (OS; also mock, siRNA-p202, pcDNA or pcDNA-p202 treated) incubated with anti-p202 or anti-Runx2 antibody (1 ug) at 4°C overnight, protein A/G Plus Agarose beads, Western blot with anti-p202, anti-Runx2, anti-Id1, anti-Id2 or anti-Id3
[2] = molecular target: Runt-related transcription factor 2 (mouse (endogenous in mouse BMSCs)) (UniProt Q08775); test: as above

binding [1]	binding [2]	Molecule
no binding		Runt-related transcription factor 2 (from UniProt Q08775 1-607)
binds	binds	inhibitor of differentiation protein Id2 (protein, UniProt P41136 1-134) MKAFSPVRSVRKNSLSDHSLGISRSKTPVDDPMSLLYNMNDCYSKLKELVPSIPQNKKVTKMEILQHVIDYILDLQIALDSHPTIVSLHHQRPGQNQASRTPLTTLNTDISILSLQASEFPSELMSNDSKVLCG
binds	binds	inhibitor of differentiation protein Id1 (protein, UniProt P20067 1-168) MKVASGSAAAAAGPSCSLKAGRTAGEVVLGLSEQSVAISRCAGTRLPALLDEQQVNVLLYDMNGCYSRLKELVPTLPQNRKVSKVEILQHVIDYIRDLQLELNSESEVGTTGGRGLPVRAPLSTLNGEISALAAEVRSESEYYIILQWETEATGGGCPPSLLFRRIAI
binds	binds	inhibitor of differentiation protein Id3 (protein, UniProt P41133 1-119) MKALSPVRGCYEAVCCLSERSLAIARGRGKSPSTEEPLSLLDDMNHCYSRLRELVPGVPRGTQLSQVEILQRVIDYILDLQVVLAEPAPGPPDGPHLPIQTAELTPELVISKDKRSFCH
